Reference: the supplement of paper PMC3334620
Over roughly 33,000 sequences, “E-score (-0.5 to 0.5)” has its median near -0.016; the highest 2% begin near 0.32. The list shows a part of the results.

molecular target: T1, Stp1 (UniProt B3LFK1); experiment: PBM E-score (8-mer binding enrichment) (E-score (-0.5 to 0.5)); higher = stronger / more preferred TF binding; most listed sequences are background and not binding sites; settings: protein concentration: 200 nM; construct: GST-full length
T1 sequence: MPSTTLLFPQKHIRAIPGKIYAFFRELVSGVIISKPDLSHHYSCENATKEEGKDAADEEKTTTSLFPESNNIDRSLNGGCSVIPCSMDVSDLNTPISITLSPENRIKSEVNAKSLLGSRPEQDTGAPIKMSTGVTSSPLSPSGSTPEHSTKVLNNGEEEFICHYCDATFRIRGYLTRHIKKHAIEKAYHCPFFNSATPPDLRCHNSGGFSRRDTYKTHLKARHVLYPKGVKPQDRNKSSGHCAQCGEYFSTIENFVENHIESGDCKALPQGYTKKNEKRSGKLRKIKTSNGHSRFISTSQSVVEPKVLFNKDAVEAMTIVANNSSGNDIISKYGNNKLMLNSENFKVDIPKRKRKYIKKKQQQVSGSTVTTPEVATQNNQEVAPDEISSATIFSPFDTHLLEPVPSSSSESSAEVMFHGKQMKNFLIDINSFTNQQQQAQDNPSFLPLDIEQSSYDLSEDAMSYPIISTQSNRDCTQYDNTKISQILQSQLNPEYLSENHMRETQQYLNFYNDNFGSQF
Method: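 Universal 'all 10-mer' protein binding microarrays (Agilent AMADID 015681) probed with GST-tagged S. cerevisiae TFs (full-length or DBD) made by in vitro transcription/translation (PURExpress), about 100-200 nM. Bound TF was detected with fluorescent anti-GST. Each ungapped 8-mer (which stands for itself and its reverse complement) is scored by the PBM enrichment score (E-score), a modified Wilcoxon-Mann-Whitney statistic from -0.5 to +0.5, computed with the Universal PBM Analysis Suite. Scale: above 0.35 generally sequence-specific binding.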

Sequence | PBM E-score
GTAACCAA | -0.00612
TATCGTCA | -0.0796
CGAAAATC | 0.159
AGCTACAT | -0.0335
ACGCGGCT | 0.446
ACTTCGTG | 0.00238
CCATTCTA | 0.113
AGTACCTG | -0.212
AGCCGACG | -0.0599
TCAAGCAA | 0.0229
CCGCGTGA | 0.313
CTTCGGGA | -0.0682
CCACTCCA | -0.0331
CATTGCCA | -0.0509
CGAGATCA | 0.0764
AGACCTCG | -0.157
CCCGTCCA | -0.00501
GATAAGTA | 0.0808
ATTCCAGG | -0.184
AACCCCAA | -0.0751
ACCTGTAC | -0.0987
GAATGGTC | -0.124
ACAATGGT | -0.255
CCATAGTC | -0.237
AAGCGATT | 0.00901

Sequence | PBM E-score
TACGGCAA | 0.449
AGGCTGTC | -0.113
CCAGGGTC | -0.279
CGAACGAC | -0.0857
CCTGACAA | -0.148
CCCGCATC | -0.152
GATCCGCA | 0.0225
TAGGACGA | -0.0746
CCGACCGC | -0.224
ACCCAGGG | -0.244
TAACATCA | 0.0945
GAATCCGC | 0.00548
GTCTGACA | -0.0335
ACGCGTCA | -0.0208
CTGCGGGA | -0.311
ATTCGTGG | -0.0218
GCCTACAC | -0.0439
GCATCACA | 0.161
GTCTTGCA | -0.103
AGCTCGCC | -0.117
AATCTACT | 0.173
GCATCGAA | 0.0746
ACGTGAGC | -0.178
AGACCGTG | 0.0238
AGACATGC | -0.147

Sequence | PBM E-score
AACTCTCC | -0.128
GCTACCAC | -0.0354
CAGCTGTC | 0.0571
AGGTGCAT | -0.0728
AACACCGA | -0.07
AAGGGGTA | -0.319
CGAAACAG | 0.0069
TGCGTGAA | 0.117
ATACCGTC | 0.0874
CAATTGTG | 0.14
AAGTCTCC | -0.218
CATGAGCA | -0.0493
ATGCATGA | 0.103
CTAGACTC | -0.365
AAGCCTAA | -0.0724
TAAACTCA | 0.0936
CGGCGCCG | 0.484
CGAGTCAA | -0.0183
CGACTACG | -0.125
CTGATACA | 0.0538
CGCAGATC | -0.0162
AAACTCAT | 0.0571
AGCCACAC | 0.151
CGGCGTCC | 0.376
AGTCGCCC | -0.174

Sequence | PBM E-score
ACCGCTAC | -0.229
CGAGCCCA | -0.215
TATAAAAA | 0.22
AGAGGTAG | -0.301
AAGTCATT | -0.108
CAATGAGC | -0.114
GCTGGTAA | -0.203
CGGCATCA | 0.438
AGTCGGAT | -0.129
CGCTATGA | -0.0471
ATGCTAGG | -0.129
CTCGAGAA | -0.00756
GTAAAACA | 0.00796
AGTAGTTA | -0.0271
CGAGGGTA | -0.264
TAATATGA | 0.0999
ACTATACA | -0.00578
ACAGCTTA | -0.112
CTTGAAGA | -0.038
CGTAATGA | 0.0127
ATAAGGAT | 0.132
AAGTACTA | 0.152
AATGACGT | -0.0426
ATAGCTAT | -0.234
CATCCGCG | 0.13

Sequence | PBM E-score
ATTGCGTA | 0.0955
AAGTGGCC | -0.0466
TGATCCAA | 0.0995
TAGTCCCA | -0.328
GATTCCTA | 0.0649
AACCCAAC | -0.128
ACTAGAAA | 0.0739
ACTTTGAC | 0.0343
ATGAAGCA | -0.267
CTCAATAC | -0.0266
GTTCATGA | 0.111
ATGCTCAG | -0.12
AGCAGAAA | 0.13
AGAGATGA | -0.0454
AGCGCATG | -0.176
CATTAGCG | 0.0896
ACAAACAC | 0.15
CCTTTTCC | 0.0552
GTTGCTGA | 0.123
AACCAGCG | -0.116
AGGGATAC | -0.139
GGTCAACA | -0.2
CATTTTGC | 0.192
CATCAACC | 0.0183
CAACACCA | 0.0363

Sequence | PBM E-score
GGTGATGA | -0.0409
TACGAGCA | -0.163
GGAGATGA | -0.244
AAACGAAC | 0.125
CGCTACCA | -0.0319
CGAGGTAC | -0.0775
AAATGGGC | -0.0421
CTACTTCC | -0.0828
TAGTGATA | -0.198
ATATTCTA | 0.2
AGCTGACG | 0.0152
CGACATGA | -0.089
TAGCTTCA | -0.0979
GGACCAAC | -0.0805
CTTCATTA | 0.247
CGTAAACA | 0.156
GTATGTGA | 0.0774
GTCAGGTA | 0.0267
ATAGAGCA | 0.0151
ACGCTACG | -0.0233
GACGTAGC | -0.149
CTGTCCTC | -0.168
CATATGTA | 0.119
AGAGAATA | 0.0574
AGTAATTC | 0.104

Sequence | PBM E-score
AGTCGAGC | -0.138
AAACATTG | 0.103
CACATCGG | -0.152
AGCATCTA | -0.18
GGCACCTA | 0.132
CTATCCAA | -0.0659
AATAAGGG | -0.186
AACATCGG | -0.113
TCCCTTCA | -0.237
ACACCCAG | -0.32
ATTTAAGC | 0.0936
CGAATCCA | -0.106
TGTATACA | 0.0489
GCAGCCTA | -0.0881
GTGCATTA | 0.171
CGCTATTC | 0.146
AATGCCTC | 0.308
CAGCCGTC | 0.175
ATTGTATG | 0.0554
ACGAGTTA | 0.0777
CCCCAAGA | -0.0379
GCAGCTTA | -0.0128
AAATTGTA | 0.0555
TAGTAACA | 0.0813
TAATGGTA | 0.0156

Sequence | PBM E-score
CCTCCCAC | -0.132
GTCTAGAC | -0.158
TAATTGCA | 0.0783
ATACCGCC | 0.1
ATCTGGCC | -0.278
GTCTTGTA | 0.0211
AGCACGAA | 0.0412
CCACCCAC | 0.0467
AGTGAGGC | 0.203
GCCTGCTA | -0.0816
AGGTTCTC | -0.122
CTTCGGCA | 0.24
AGATTACC | 0.0788
ACCAAATC | 0.047
CTTATGCA | 0.0959
GTAAGTAC | 0.0755
AAGCGTAA | 0.014
CTCCATGA | 0.0364
GAGACTTA | -0.276
AGCCATAA | -0.101
AGACATCC | -0.27
CATTTTAC | 0.271
ATTCATTC | 0.0613
AGGCCCCT | -0.211
CACGGACA | 0.177

Sequence | PBM E-score
TACTGCGA | -0.159
GACATATA | 0.0496
TCAAACGA | 0.228
ATTCCTAC | 0.0636
AAGTCAAT | 0.13
ATTATCCG | 0.171
GTGTGCCA | 0.113
AAGCGCTC | -0.0213
CTGTGAGA | -0.0467
CGTTACTA | 0.0784
CTCTCACA | 0.1
CCGGAGGC | -0.176
AGTCACGA | -0.104
CAGGTTTC | -0.0256
AGAACTCG | 0.0724
CCGGGTTA | -0.185
CGTTCTGA | -0.0956
GCAGTTCA | 0.0378
AGCGCTAT | 0.0464
